Results as given in PubChem BioAssay AID1240 (Sanford-Burnham Center for Chemical Genomics, 2008).
Hit rate of the full screen: of about 50,000 compounds, about 800 (1.6%) showed an effect of 50% or more. The list shows a part of the results.

target: Bcl-2-like protein 10 (Homo sapiens) (UniProt Q9HD36); test: Phenotype converters, Bcl-B/TR3 peptide binding displacement, primary biochemical FP (AID 1240); details: GST-Bcl-B / FITC-TR3 peptide fluorescence polarization; stronger effect = higher value; compound at 3.75 mg/L;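 also: 0% = Bcl-B with tracer peptide and DMSO and 100% = tracer peptide lacking Bcl-B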
Chain of UniProt Q9HD36 (Q9HD36 whole entry, looked up): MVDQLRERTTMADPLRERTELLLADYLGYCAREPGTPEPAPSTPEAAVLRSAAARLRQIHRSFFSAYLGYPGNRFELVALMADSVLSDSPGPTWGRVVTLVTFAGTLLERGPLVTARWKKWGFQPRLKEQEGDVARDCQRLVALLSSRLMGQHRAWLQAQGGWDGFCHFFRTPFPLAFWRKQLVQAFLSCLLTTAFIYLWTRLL

| Compound | displacement [%] |
| --- | --- |
| O=C(O)c1cc(-c2ccc3c(c2)OCO3)nc2ccc(Br)cc12 | -14.6 |
| O=C(O)C1C2C=CC(O2)C1C(=O)Nc1ccc(F)c(Cl)c1 (stereo not drawn) | 2.5 |
| N/C(=N\OC(=O)/C=C/c1ccccc1)c1ccccc1 | -9 |
| O=C(COc1ccc(Br)cc1)Nc1ccc(-c2nc3ccccc3s2)cc1 | 0.5 |
| CCOc1ccc(/C=C2/C(=O)NC(=O)N(c3ccc(OCC)cc3)C2=O)cc1 | 6.5 |
| O=C(N/N=C/c1ccc(F)c(Br)c1)c1cccc(Br)c1 | 7.3 |
| O=C(CCN1C(=O)c2cccc3cccc(c23)C1=O)OC/C=C/c1ccccc1 | 7.5 |
| CCOc1cc(/C=C/C(=O)O)cc(I)c1OCC | 12.7 |
| Cc1ccc(N2C(=O)CC(N3CCSCC3)C2=O)cc1 (stereo not drawn) | -1.3 |
| C/C(Nc1cccc(C)n1)=C(\C#N)C(N)=O | -3.3 |
| Cc1cc(/C=C2\C(=O)NC(=S)N(c3ccc(Cl)cc3)C2=O)c(C)n1-c1cccnc1 | 6.5 |
| Cc1ccc(N(CC(=O)Nc2ccccc2Br)S(=O)(=O)c2ccc(F)cc2)cc1 | 10.7 |
| Cc1onc(-c2ccccc2)c1C(=O)Nc1ccc(N(C)C)cc1 | 8.8 |
| CC(C)(C(=O)O)c1ccc([N+](=O)[O-])cc1 | -7.4 |
| COC(=O)c1ccc(C2C(C(=O)OCCc3ccccc3)=C(C)NC3=C2C(=O)CCC3)cc1 (stereo not drawn) | -6.6 |
| CC(NC(=O)c1ccccc1NC(=O)c1cccnc1)c1ccccc1 (stereo not drawn) | 13.1 |
| CSc1nc(C)c(C(C)=O)cc1C#N | -4.5 |
| COc1ccc(Nc2nc(C)cc(C)c2C(N)=O)cc1 | -2.7 |
| COc1cc(/C=C(/C#N)C(=O)Nc2cccc(Br)c2)cc(Cl)c1O | -52.5 |
| CCOC(=O)C1(C)C=C(Nc2ccc(Cl)cc2)C(=O)N1c1ccc(Cl)cc1 (stereo not drawn) | -1.7 |
| CCc1c(C)sc(NC(=O)c2ccc(OC)cc2)c1C(N)=O | -0.6 |
| Cc1cccc(C(=O)N2CCN(C)CC2)c1 | -5.3 |
| CCc1ccc(NC(=O)c2cccc3ccccc23)cc1 | 2.4 |

| Compound | displacement [%] |
| --- | --- |
| C=C/C(=C\C=C(/C)F)NC(=O)/C(C#N)=C\c1cc(Cl)cc(Cl)c1Cl | -8 |
| O=C1C(=O)N(c2ccccn2)C(c2cccnc2)/C1=C(/O)c1cccc(Br)c1 (stereo not drawn) | -16.6 |
| COc1cccc(/C=C2\SC(=O)N(CCC(=O)Nc3c(C)n(C)n(-c4ccccc4)c3=O)C2=O)c1 | 3.1 |
| O=C(CSc1nc2ccccc2o1)c1ccc(-c2ccccc2)cc1 | 17.5 |
| Cc1c(C(=O)Nc2ccc(-c3nc4cc(Cl)ccc4o3)cc2)cccc1[N+](=O)[O-] | -13.9 |
| CC1CCN(C(=O)/C(=C\c2ccco2)NC(=O)c2ccccc2)CC1 | 15.6 |
| C=CCc1cc(/C=C2\C(=O)NC(=S)N(c3cccc(Br)c3)C2=O)cc(OC)c1O | 0 |
| CC(C)(C)C(=O)COc1ccc2ccc(=O)oc2c1 | 10.3 |
| O=C1N=C(N2CCOCC2)S/C1=C\c1ccc(O)cc1 | -25.5 |
| Cc1ccc(N2C(=O)C(O)C(O)C2=O)cc1 (stereo not drawn) | -7.8 |
| Cc1no[n+]([O-])c1COc1ccccc1C=C1C(=O)NC(=S)NC1=O | 10.8 |
| Cc1ccc(/C=C/C(=O)Nc2cccc3ncccc23)o1 | 27.1 |
| O=C(CSc1nc2ccccc2o1)c1ccc2c(c1)Cc1ccccc1-2 | 12.1 |
| COc1ccc(NC(=O)c2ccc(Br)o2)c(OC)c1 | -1.7 |
| COc1cc(NC(=O)c2cccc(Br)c2)c(C(=O)O)cc1OC | -2.9 |
| CCOc1cccc(C(=O)Nc2ccc(C(=O)Nc3cccc(-c4nc5ccccc5o4)c3)cc2)c1 | 0.7 |
| Oc1c(Br)cc(Br)cc1C=Nc1ccc(Cl)c2cccnc12 | -2.5 |
| Cc1ccc2nsnc2c1NC(=O)c1ccc(-c2ccccc2)cc1 | 1.4 |
| O=C1C2C3C=CC(C3)C2C(=O)N1CNc1ccccc1 (stereo not drawn) | -11.3 |
| C1CN(CC2CSC(=NC34CC5CC(CC(C5)C3)C4)O2)CCO1 (stereo not drawn) | -13 |
| CCOCCOC(=O)C1=C(C)NC2=C(C(=O)CCC2)C1c1cc(Br)c(O)c(OCC)c1 (stereo not drawn) | 2 |
| CCc1ccccc1NC1=C(Cl)C(=O)N(c2ccc(Br)cc2)C1=O | -3.9 |
| Cc1cccc(OCc2nc(-c3ccccn3)no2)c1 | 7.8 |

| Compound | displacement [%] |
| --- | --- |
| COc1ccc(/C=C/C(=O)NCC2(c3ccccc3)CCOCC2)cc1OC | -8.4 |
| Cc1nn(-c2ccccc2)c2c1C(c1ccccc1)C(C#N)=C(N)O2 (stereo not drawn) | 7.2 |
| O=C(CSc1nnc(-c2ccccc2)n1-c1ccccc1)N/N=C/c1ccccc1[N+](=O)[O-] | -9.6 |
| CC1=C(C(=O)Nc2cc(Cl)ccc2C)C(c2cccc(Br)c2)NC(=S)N1 (stereo not drawn) | 14.6 |
| Oc1c(Br)cc(Br)cc1C=Nc1ccc(Br)c2cccnc12 | 17.7 |
| Cc1ccc2c(Cl)c(C(=O)NCc3ccco3)sc2c1 | -6.3 |
| CCOc1ccc(C=C2C(=O)NC(=O)NC2=O)cc1Cl | 7.5 |
| CCc1ccccc1NC(=O)c1cc(Cl)ccc1OC | -7.7 |
| COc1ccc(/C=C2\C(=O)NC(=S)N(c3cccc(Br)c3)C2=O)cc1 | 18.9 |
| Cc1ccc(N=Cc2ccc(Br)s2)cc1[N+](=O)[O-] | -3.5 |
| N#Cc1ccccc1NC(=O)C(Cc1ccc([N+](=O)[O-])cc1)N1C(=O)c2ccccc2C1=O (stereo not drawn) | 6.1 |
| CCc1nnc(NS(=O)(=O)c2ccc(N/C=C\C(=O)c3ccc4c(c3)OCO4)cc2)s1 | 30.8 |
| COc1ccccc1C(=O)NNC(=O)COc1ccc(Cl)cc1Br | -3.1 |
| Cc1cccc(OCC(=O)NC2CCCCCC2)c1 | 7.8 |
| C=CCn1c(SCC(=O)N(CCO)CCO)nc2sc3c(c2c1=O)CCC3 | 24 |
| Cc1ccc(C(=O)Nc2ccccc2CO)cc1[N+](=O)[O-] | -3.9 |
| Oc1[nH]c2ccc(F)cc2c1N=Nc1ccccn1 | 44.5 |
| CCc1ccc(-n2c(C)cc(/C=C3/NC(=S)NC3=O)c2C)cc1 | 2.1 |
| COc1cccc(CN2CCN(C3CCCC(C)C3)CC2)c1OC (stereo not drawn) | -15.9 |
| O=C1c2cccc([N+](=O)[O-])c2C(=O)N1c1nc(-c2ccccc2)cs1 | 12.4 |
| CC(=O)c1cccc(NC(=O)COc2ccc(Br)cc2C(C)(C)C)c1 | -1.2 |
| Cc1ccc(C(C)C)c(OCCOc2ccc(/C=N/n3cnnc3)cc2)c1 | -14.8 |
| Cc1ccc(C(=O)NCC2CCCO2)cc1 (stereo not drawn) | -8 |

| Compound | displacement [%] |
| --- | --- |
| O=c1c(Oc2ccccc2Br)c(C(F)(F)F)oc2c(CN3CCOCC3)c(O)ccc12 | -1.2 |
| COC(=O)C1=C(C)N=c2s/c(=C\c3ccc(O)cc3)c(=O)n2C1c1ccccc1 (stereo not drawn) | 10 |
| Clc1ccccc1-c1nnc(-c2ccc(-c3ccccc3)cc2)o1 | 5.2 |
| CCc1ccc(N2NC(=O)CC2=O)cc1 | 25.9 |
| O=S(Cc1ccccc1)CC(O)COc1ccccc1 (stereo not drawn) | -0.9 |
| COc1cccc(NC2=NS(=O)(=O)c3ccccc32)c1 | -5.9 |
| CN(C)CCNCCP(=O)(c1ccccc1)c1ccccc1 | 0.3 |
| O=S(=O)(NCc1ccc(F)cc1)c1ccc2ccccc2c1 | 15 |
| Cn1c2c(c(=O)n(C)c1=O)C(c1ccc([N+](=O)[O-])o1)C1=C(N2)c2ccccc2C1=O (stereo not drawn) | -5.4 |
| O=C(O)c1ccc(Oc2ccc(-c3ccc(Oc4ccc(C(=O)O)c(C(=O)O)c4)cc3)cc2)cc1C(=O)O | -1.9 |
| O=[N+]([O-])c1cc(F)c(N2CCOCC2)cc1N1CCCCC1 | 13.3 |
| COC(=O)c1c(C)nc2n(Cc3ccccc3Cl)c3ccccc3n12 | -13.1 |
| COc1cc(C(=O)Nc2ccc3oc(-c4ccc(C)cc4C)nc3c2)cc(OC)c1OC | -2.6 |
| Cc1c(-c2ccccc2)[nH]n2c(=O)cc(-c3ccccc3)nc12 | 4.9 |
| COc1cc(/C=C2\SC(=S)NC2=O)cc(Br)c1OCc1c(C)no[n+]1[O-] | -22.2 |
| CCCCc1c(C)nc(N/N=C/c2cccc(OC)c2O)[nH]c1=O | 0.1 |
| COc1nnc(-c2ccc(Cl)cc2)c2ccccc12 | 2.1 |
| Cc1c(Cl)cccc1NC(=O)C(=O)NCCCN1CCOCC1 | -13 |
| CCN(Cc1ccccc1)S(=O)(=O)c1c(C)cc(C)cc1C | -4.8 |
| O=C1/C(=C/C2CC=CCC2)SC(=S)N1C1CCS(=O)(=O)C1 (stereo not drawn) | 9.6 |
| O=C(O)CCCNC(=O)c1cncc(Br)c1 | 18.8 |
| COC(=O)c1ccc(C2Nc3cc(C)c(C)cc3NC3=C2C(=O)CC(C)(C)C3)cc1 (stereo not drawn) | -1.2 |
| COc1ccc(C2=CC(=O)C=CC2=O)cc1 | 40.7 |

| Compound | displacement [%] |
| --- | --- |
| O=S(=O)(Nc1ccccc1C(F)(F)F)c1ccccc1 | 1.6 |
| CC1CCC(N2CCN(Cc3cccnc3)CC2)CC1 (stereo not drawn) | 2.5 |
| Cc1ccc2oc(C(=O)Nc3ccc([N+](=O)[O-])cc3Cl)c(C)c2c1 | 3.4 |
| O=C(NCCc1ccccc1)C(=O)NCc1ccc2c(c1)OCO2 | 3.2 |
| CCCCOCP(=O)(c1ccccc1)c1ccccc1 | 1.1 |
| Cc1ccc(C)c(Nc2nc3c(s2)CCCC3)c1 | -6.3 |
| CCOC(=O)c1[nH]cnc1C(=O)Nc1ccccn1 | 13.8 |
| N#Cc1cc([N+](=O)[O-])ccc1N=Cc1ccc(C#Cc2ccccc2)cc1 | 4.4 |
| CCCOc1nc2ccccc2nc1NS(=O)(=O)c1ccccc1 | 13.9 |
| C=CCN1C(=O)NC(=O)/C(=C\c2cccc(OCc3ccccc3Cl)c2)C1=O | -8.4 |
| O=C(/C=C/Nc1ccccc1O)C(F)(F)F | 2.7 |
| C=CCn1c(O)c(N=NC(=O)c2cc(C)[nH]n2)c2cc(Br)ccc21 | -7.3 |
| Cc1cccc(NCN2C(=O)c3ccccc3C2=O)c1 | 5.8 |
| O=C1C=C/C(=N/S(=O)(=O)c2ccc(F)cc2)C=C1Br | -9.6 |
| CO/N=C(/C(=O)O)c1cn2ccccc2n1 | -5.3 |
| Cc1ccsc1C=Nc1cccc([N+](=O)[O-])c1 | 1.2 |
| O=C(NN=C1CCCC1)C(O)(c1ccccc1)c1ccccc1 | 13.7 |
| CS(=O)(=O)N1CCN(C(=O)c2ccc(-c3ccccc3)cc2)CC1 | 11.6 |
| Cc1ccccc1NC(=S)NC(=O)C12CC3CC(CC(C3)C1)C2 | -4.8 |
| Cc1ccc(C)c(NC(=O)C(=O)NCc2ccccc2Cl)c1 | -1.7 |
| Cc1cc(C)nc(S(=O)CC(O)COc2ccccc2)n1 (stereo not drawn) | -4.7 |
